From paper PMC12136788
The other results are listed elsewhere or left out.

T1: UNK ZnF1-3 (human, UniProt Q9C0B0 31-174)
T1 sequence: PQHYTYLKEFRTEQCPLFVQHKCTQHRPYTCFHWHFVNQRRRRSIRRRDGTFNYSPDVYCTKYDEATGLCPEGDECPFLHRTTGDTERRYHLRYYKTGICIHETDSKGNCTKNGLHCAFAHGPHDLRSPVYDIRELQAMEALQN

B1: chr7:129668796:129668797:-_ENSG00000091732_ENST00000358303|hu_hu|motif|central (ssRNA)
RNA: GGGAGUUCUACAGUCCGACGAUCGGAAGGAAGCUGGAGGUCCAAGUGACAAAGGCUUUGAAAACGAUCUAGGAAUUCACGGACAAGAAUAGCAGGCUCAUCCAGGGGCAACAUCCCAAAUCGGUCUGGGGAUGGGCUGUCUGGCAACAGAGGAUUGAGCAUCA
B2: 87691091_87691328_4739_CDS_ENSG00000163629_ENST00000511467|human|control|control (ssRNA)
RNA: GGGAGUUCUACAGUCCGACGAUCUAGCACACCAGGUGGAGGUCUGCAGAGAAGCAAGAAUACUUCUGGAGCAGUUCCCCUGAGAGCAGAUAUGACUUCCUGCUGAGAUAGUCCUUUCAAAGAGGCUCCAUUCACUUUCAAGAUCAACAGAGGAUUGAGCAUCA
B3: chr4:33333233:33333234:-_ENSMUSG00000040128_ENSMUST00000049357|mus_hu|FALSE|FALSE (ssRNA)
RNA: GGGAGUUCUACAGUCCGACGAUCUGCCCCAGCAUAAUUUUCCUUUUGGCUCACUUCAGUUAGAAAUGCUGAUUUCUUCAAAUGCGAAUUUUUAAUGUUCUCGGUAUUUUUAAAAGGCUUUUUUUCCUGCUUCUGAAUUCUGUCCAACAGAGGAUUGAGCAUCA
B4: chr8:11702082:11702083:-_ENSG00000164733_ENST00000533455|hu_mus|FALSE|FALSE (ssRNA)
RNA: GGGAGUUCUACAGUCCGACGAUCCUAUAAAACCAGUACAGCUCUUCAUACUUGGUUGAGGUACACAAAGCAUAAAAAUCCUAUUGAAAAAGCAUCGGCUGAGGACAGGACCAAGGAGAGCUGGCCACAUUACCAAUGUCGAUGCAACAGAGGAUUGAGCAUCA
B5: chrX:51638331:51638332:+_ENSG00000179222_ENST00000326587|hu_hu|FALSE|FALSE (ssRNA)
RNA: GGGAGUUCUACAGUCCGACGAUCAGAGAAAUCAUAGACACCAUUUGGGCCUUUUGUGGUGGCAUUCUGGACUUUAAAGGCUGACUUAGGCCUAGCGGCAGCUGCUGAAACCUGAAUGUCAGCCAUCUCAUUGGCAGUUGGGGGCAACAGAGGAUUGAGCAUCA
B6: chr14:89307221:89307222:+_ENSG00000165533_ENST00000346301|hu_mus|hu_hu_hu_mus_False|58_98 (ssRNA)
RNA: GGGAGUUCUACAGUCCGACGAUCUCCUGUUUGGUUAGUUCCAGGGAGCUUCAAAGAUGUGCCAGGGCGUGGGACCUGAGCUAUAGCAUUUUCAUCCAGGAUCAUUUCAGCAAUUCCUUCCUGGUCCACAUCAAUUUCAUCUAUCAACAGAGGAUUGAGCAUCA
B7: 126075815_126079875_1646_CDS_ENSG00000164961_ENST00000318410|human|control|control (ssRNA)
RNA: GGGAGUUCUACAGUCCGACGAUCCUCAGUCAUCCGCUCCGAACCCUCUUUCUUGUAAUGCUCCCAUUUGGUUUGCUUUUCUGAAAGCAUUUGCUUGAACAUCUCUUUGAGUAUAAACUCAAAUUGUGCAGUAUCUAACAGCAGCAACAGAGGAUUGAGCAUCA
B8: chr4:17845017:17845018:+_ENSG00000109805_ENST00000514176|hu_mus|hu_hu_hu_mus_False|68_108 (ssRNA)
RNA: GGGAGUUCUACAGUCCGACGAUCGCUUCCUAACUUAGUAUCUUCAUUAAGGAACUCUGCAAGGUUAGUUUACUUUUUCUGUAGCGCAGCUGUUUUGGCUCGUCUGGGUAAUCUCAUCUUCAUUUCUGAUGGUGGUUCAUGAUCCAACAGAGGAUUGAGCAUCA
B9: chrX:12728449:12728450:+_ENSMUSG00000031010_ENSMUST00000089302|perfect_dup|motif|central (ssRNA)
RNA: GGGAGUUCUACAGUCCGACGAUCAUGCCCUAAGGCUUUUAAAGCUUCAUCUAAACUAUCCACCAAAGAAUUAAAGAACUCGGAAGCAUCAUGUUGUUCACGAAGAUUGACAGGCUCACCCCAAAGCCUGAACUGUUUCCAAAACAACAGAGGAUUGAGCAUCA
B10: chr16:37881740:37881741:+_ENSMUSG00000034158_ENSMUST00000078717|mus_hu|FALSE|FALSE (ssRNA)
RNA: GGGAGUUCUACAGUCCGACGAUCCUGCAAACCAUCAGCCAAAUGUGAAACUAUCAUUCACAAAUUAUGUUAAAAUAAUCUAAACAUGGGACUGGACUCAUUCUUGCUGAAUGGGUAGAUGAAACACAAAAUGUUUUAUAUCAUCAACAGAGGAUUGAGCAUCA
B11: chr2:171811166:171811167:+_ENSG00000115806_ENST00000234160|hu_hu|motif|central (ssRNA)
RNA: GGGAGUUCUACAGUCCGACGAUCUCCUUCCUCAAAUGGGCGUGUAGGUAUUCGAUGCAAAUAACCAUAUCCAAUGCCACAUCCGGGGCUGCCUUCUCCACCCCAUGCAGAAUUUGGUGUAAUAAUCACUUCUCGACAGUUAUCCAACAGAGGAUUGAGCAUCA
B12: chr12:52885226:52885227:-_ENSMUSG00000035247_ENSMUST00000042052|mus_hu|motif|central (ssRNA)
RNA: GGGAGUUCUACAGUCCGACGAUCUUUAAAAACAUUUAUUCUUUCUACCAGUUGACUACAAUCUUGUUUCAUAUCCAAAUCCAUGCGGUUGUUUAACACAGUAAGAAGUGCUUGUACCAAGCCACUGCUACACAUUUCAUAUGGCAACAGAGGAUUGAGCAUCA
B13: 61654106_61657301_1337_CDS_ENSG00000068796_ENST00000381103|human|control|control (ssRNA)
RNA: GGGAGUUCUACAGUCCGACGAUCACCCAUAGUAUGAGUUUUUCCACUUCCAGUCUGCCCAUAAGCAAAGCAUGUAGCCAUUCCCCUUUCAAAUAUAGUUUCCACUAGUGGUCUAGCAGUAAACCUGUAAACCAUUUCAUUAGGCAACAGAGGAUUGAGCAUCA
B14: chr8:74746221:74746222:+_ENSMUSG00000003039_ENSMUST00000003123|mus_hu|FALSE|FALSE (ssRNA)
RNA: GGGAGUUCUACAGUCCGACGAUCUACACAGCUUCGAAAAGCAGUCUGUAGCAGAAGAUGCAAGGGUGUGUGUAGCCAUGUUUCCAGAAUAUACCAAAGGAAACACACACAACCCCAGUGUGGCCUUUUGCGAACCCUCGAUGCCAACAGAGGAUUGAGCAUCA

target: T1, UNK ZnF1-3; experiment: nsRBNS (natural sequence RNA bind-n-seq); RBNS binding buffer (assumed for nsRBNS): 25 mM Tris pH 7.5, 150 mM KCl, 3 mM MgCl2, 0.01% Triton X-100, 500 ug/ml BSA, 20 U/ml SUPERase-In, 4 C; UNK is unkempt and MSI1 is Musashi-1; names of the RNAs are library labels; protein concentration not given here; high values mean tight binding

Row | Binder | binding signal [enrichment R]
1 | B1 | 1.41
2 | B2 | 1.08
3 | B3 | 0.585
4 | B4 | 1.07
5 | B5 | 1.17
6 | B6 | 0.829
7 | B7 | 0.885
8 | B8 | 0.488
9 | B9 | 1.65
10 | B10 | 0.87
11 | B11 | 1.02
12 | B12 | 0.974
13 | B13 | 0.89
14 | B14 | 0.731
